Source: publication PMC7819943, “Rice protein-binding microarrays: a tool to detect cis-acting elements near promoter regions in rice”
This is one part of the list.

Target: T1, OsWOX13 (Oryza sativa, UniProt Q5QMM3 1-267)
T1 sequence: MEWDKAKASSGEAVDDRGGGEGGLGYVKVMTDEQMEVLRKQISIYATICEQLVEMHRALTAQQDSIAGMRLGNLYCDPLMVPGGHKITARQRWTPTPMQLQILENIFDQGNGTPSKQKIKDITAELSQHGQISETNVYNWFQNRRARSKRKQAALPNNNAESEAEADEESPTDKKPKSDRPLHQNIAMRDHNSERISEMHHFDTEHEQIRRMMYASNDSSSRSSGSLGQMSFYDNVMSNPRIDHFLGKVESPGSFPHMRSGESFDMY
Assay: protein-binding microarray (RPBM); PBS, 2% BSA, 51.3 ng/ul salmon testes DNA, 50 uM zinc acetate, 200 nM TF, 25 C, 1 h; high values mean tight binding
Settings: protein: recombinant; tags: N-terminal polyhistidine and DsRed monomer fusion (pET32a); label: CyDye5-dUTP incorporated in the synthesized complementary strand; 3' TTTTT single-stranded linker to array surface; dsDNA, one strand shown
Method in brief: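 In PBS with 2% BSA, salmon testes DNA and 50 µM zinc acetate, 200 nM protein was incubated on a custom Agilent array at 25 °C for 1 h and then washed off. The array had been made double-stranded by primer extension with Cy5-dUTP and blocked with 2% BSA. The proteins were transcription factors fused N-terminally to polyhistidine and DsRed, expressed in E. coli BL21-CodonPlus and purified on Ni–NTA. The binding signal is per-feature fluorescence intensity (arbitrary units) from an Axon 4000B scanner.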

Sequence | binding signal
ATTGACCATTTGACAGAAATCAGCCGTACTTTCGGATTCTCGGAGTCACCTAGTGCAG | 5100 fluorescence intensity (a.u.)
TGCTAATTAGATGAGGGTGAGCAAAGACATGCTATAAGTGCGGAGTCACCTAGTGCAG | 52000 fluorescence intensity (a.u.)
TAATTGAGGGTAATTAATATAATCGTCCGGACATCGTGCGCGGAGTCACCTAGTGCAG | 10500 fluorescence intensity (a.u.)
ATGTGATTTGGGAAACAAAGTGAACAACCTAACCTAAACCCGGAGTCACCTAGTGCAG | 17600 fluorescence intensity (a.u.)
AGTAATTTTGTTCTGATTGCATGTCTCAACAGGATGTAGACGGAGTCACCTAGTGCAG | 41300 fluorescence intensity (a.u.)
TTGTGATGAACTTTTGACAAGGTTTGTACCTGCAGCAGGACGGAGTCACCTAGTGCAG | 6570 fluorescence intensity (a.u.)
CAACTAAACTTTTAATTTTAGCATAAACTAAACAGACCCACGGAGTCACCTAGTGCAG | 5430 fluorescence intensity (a.u.)
TTTGATGTGATGGAAAAGTTGGAAGTTTGAAGAAAAGGTTCGGAGTCACCTAGTGCAG | 12300 fluorescence intensity (a.u.)
GCTAGATTGGATAAGGAGGGGAGGAGGGTGGAGGGGAGGGCGGAGTCACCTAGTGCAG | 5660 fluorescence intensity (a.u.)
TACAAATCAATGTCGCATTTGGTGTTCGACTGTTCGTTTCCGGAGTCACCTAGTGCAG | 3340 fluorescence intensity (a.u.)
AGCTATATCAATTTGAGACCTAAATGATACACTTAGATGACGGAGTCACCTAGTGCAG | 7160 fluorescence intensity (a.u.)
TTGACGGCGTTAATTTGGTACTTAACAGCCGTCAACAATACGGAGTCACCTAGTGCAG | 19000 fluorescence intensity (a.u.)
TGTCACATCATCATCCACTAATTAACAAGATACCACATCACGGAGTCACCTAGTGCAG | 13200 fluorescence intensity (a.u.)
TTGATGGATTACTACTCTCCAGGTGTCTTGTATGCCCCTTCGGAGTCACCTAGTGCAG | 19700 fluorescence intensity (a.u.)
TCGTGACCCTTGATTGTCAGTATCACCCTTTTGGAGATATCGGAGTCACCTAGTGCAG | 7120 fluorescence intensity (a.u.)
CAATCTCAATCAAAGATTACAGAATCAATTTGCTTCTAATCGGAGTCACCTAGTGCAG | 14800 fluorescence intensity (a.u.)
AAATTTTAATTTATTAGTGTACAATCGACATGCAAGATTTCGGAGTCACCTAGTGCAG | 5850 fluorescence intensity (a.u.)
CCCCACTGATGATGATGATGACTCGATTCTATTCCACCGCCGGAGTCACCTAGTGCAG | 12400 fluorescence intensity (a.u.)
CAAAGATTTCACTGTTTAATCTAATCTTGTGGATTTTATGCGGAGTCACCTAGTGCAG | 3590 fluorescence intensity (a.u.)
ATTCTTGACTGGACGATTATACGTACAGAGGCCATGCAGACGGAGTCACCTAGTGCAG | 7540 fluorescence intensity (a.u.)
ATGTAATTTTAAATTCAACTTAAACAACAAGAATAACAAACGGAGTCACCTAGTGCAG | 12000 fluorescence intensity (a.u.)
GCATAATTATATATACTCGCTGGCTTCTTAGTTGCAACCACGGAGTCACCTAGTGCAG | 26200 fluorescence intensity (a.u.)
GCGGAATGATTTCATTTTGATGTATGATAGCACTTCATAGCGGAGTCACCTAGTGCAG | 15000 fluorescence intensity (a.u.)
TACCTAATTGTGAGAAGATGTCGCAGGTACCAGGAGTTACCGGAGTCACCTAGTGCAG | 14100 fluorescence intensity (a.u.)
CTCCCAAGTAAATGATTTGAAATACCCGATCTAATTATTACGGAGTCACCTAGTGCAG | 3180 fluorescence intensity (a.u.)
AATGACAGGACAACGAGGACACCGTGGATATTAAAGACCCCGGAGTCACCTAGTGCAG | 5040 fluorescence intensity (a.u.)
GATCAATCTAAATAGCTAAACTTGTTGGCTCCATGTAAAACGGAGTCACCTAGTGCAG | 4760 fluorescence intensity (a.u.)

Sequence | binding signal
TGTGCTGCTAATTAATTGCGTACACGCATGCATACACACACGGAGTCACCTAGTGCAG | 17200 fluorescence intensity (a.u.)
ATACTCCAATTGACAGGCAAATGAAATGAATAGTTCTAGACGGAGTCACCTAGTGCAG | 21600 fluorescence intensity (a.u.)
CAATTTAAGTTTAAATTGGCATTTCCACTTCTTAACGCCTCGGAGTCACCTAGTGCAG | 10300 fluorescence intensity (a.u.)
TCGCCATTAATTACTATTGCGATCTTGAGCCTGCGTGGCACGGAGTCACCTAGTGCAG | 14600 fluorescence intensity (a.u.)
TATCCAGCGTTAACTTATTAATTAGTTAGTCAAATATTCCCGGAGTCACCTAGTGCAG | 10100 fluorescence intensity (a.u.)
ATAAATTTGGAGTTATCATAGAACTATAAATTCTAAAGCTCGGAGTCACCTAGTGCAG | 3440 fluorescence intensity (a.u.)
CTGCAGATTAGCTTGAAATGTAATGAAGGATAGCGTCTGACGGAGTCACCTAGTGCAG | 8640 fluorescence intensity (a.u.)
ATTTTAATGAATTTAAACATATACATATGTTTAGATTCATCGGAGTCACCTAGTGCAG | 4860 fluorescence intensity (a.u.)
TAAAGATTTAATTGTAACGATCATAACGGTATATACAGATCGGAGTCACCTAGTGCAG | 16700 fluorescence intensity (a.u.)
TACTTATAATTAGTGTTAAACATCCGATGTGACGGGTACTCGGAGTCACCTAGTGCAG | 23900 fluorescence intensity (a.u.)
CAAATTACGCCCTACTAATTCATTGGTAATTTTGTATAGTCGGAGTCACCTAGTGCAG | 9390 fluorescence intensity (a.u.)
CACCTTAATTACATGGTGGCTTAAGCTCCAGGTGGCCCGACGGAGTCACCTAGTGCAG | 9900 fluorescence intensity (a.u.)
ATCTAGACTTAAAATTATAAGTCATGGCATTCACAGAGATCGGAGTCACCTAGTGCAG | 3820 fluorescence intensity (a.u.)
GGGGATTGAGGAAAGGAGGCAGCGGCAGAAGAAAGGGCCTCGGAGTCACCTAGTGCAG | 4030 fluorescence intensity (a.u.)
TCATGATGGTTTTGAAATTATTCTGACACGAAAGTTTGTGCGGAGTCACCTAGTGCAG | 4240 fluorescence intensity (a.u.)
AGCAAATTTTGCCTAAACTTTATAGTATTTGCTCTAAGTACGGAGTCACCTAGTGCAG | 3290 fluorescence intensity (a.u.)
GTGGATATCAATCTGTATATACTAGATCCCCACCCACCATCGGAGTCACCTAGTGCAG | 6630 fluorescence intensity (a.u.)
TTACTTTTCAATTATTACATTATGATGGATCGGAGTTATTCGGAGTCACCTAGTGCAG | 15500 fluorescence intensity (a.u.)
TTTGATGGATTTCGATGACTACTGTAGCAACAAGGGATAACGGAGTCACCTAGTGCAG | 14300 fluorescence intensity (a.u.)
GGTAACTATTATTGTCACCGATTATTATTTGGTTCATATGCGGAGTCACCTAGTGCAG | 3700 fluorescence intensity (a.u.)
AACAAATTTAACAATATAGTAACTCTAACTCCTAGCTCCCCGGAGTCACCTAGTGCAG | 14300 fluorescence intensity (a.u.)
ATCCTAATGAGCTCCTAAATTAATAAGATTATCCATGTTGCGGAGTCACCTAGTGCAG | 12700 fluorescence intensity (a.u.)
GTGTAATTAATACAAAGATAAAATAATAAGAATGTTTTCTCGGAGTCACCTAGTGCAG | 9350 fluorescence intensity (a.u.)
CCACCTGATTTGCTCTTTGGAAACATAATGTATGCCTGCTCGGAGTCACCTAGTGCAG | 26600 fluorescence intensity (a.u.)
TTCGACATAATACATGTGATTGCAAACTTGTGAGTCACACCGGAGTCACCTAGTGCAG | 14900 fluorescence intensity (a.u.)
GTTCGTTAAATTTTAGAAGTGATTTGGCACGATTCATATACGGAGTCACCTAGTGCAG | 4160 fluorescence intensity (a.u.)
TTATGATTTCAAGGTTAATGCTGCAGTTTCAAACAAGTTACGGAGTCACCTAGTGCAG | 3480 fluorescence intensity (a.u.)
